# According to the BET-seq Pho4 binding data (Le et al. 2018):
# This is one part of the list. Values were computed here from the reads of four pooled replicates and scatter widely.
# Target: T1, Pho4 (S. cerevisiae) (UniProt P07270)
# T1 sequence: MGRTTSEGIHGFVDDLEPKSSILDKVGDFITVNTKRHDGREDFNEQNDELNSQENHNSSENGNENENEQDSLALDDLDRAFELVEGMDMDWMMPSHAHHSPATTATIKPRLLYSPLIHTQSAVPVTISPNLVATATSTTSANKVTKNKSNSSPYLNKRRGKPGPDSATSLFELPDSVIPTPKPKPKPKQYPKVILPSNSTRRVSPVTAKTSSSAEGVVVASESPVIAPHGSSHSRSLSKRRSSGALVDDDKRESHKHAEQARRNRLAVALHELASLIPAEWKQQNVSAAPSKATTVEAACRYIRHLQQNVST
# Experiment: relative binding free energy (BET-seq); higher = weaker binding
# Conditions: reference: library average
row,Sequence,relative binding free energy [kcal/mol]
1,GTGGACACGTGGTTCA,0.02
2,CTTTCCACGTGATGTG,0.25
3,GTGTTCACGTGTGACG,0.37
4,AATAGCACGTGTGTGA,-0.05
5,TAGTACACGTGGTAGG,0.03
6,GTTGTCACGTGCTAAG,0.07
7,GTCGGCACGTGAGATA,0.3
8,GATGACACGTGGATGT,0.12
9,GGGGTCACGTGTTATA,0.2
10,AATTGCACGTGGAGAA,0.1
11,GAATGCACGTGGGGCT,-0.02
12,GTTCTCACGTGGTTCG,0.16
13,AATGGCACGTGCCGGT,-0.22
14,ATGATCACGTGCGGTA,0.17
15,GTGGCCACGTGTATGG,-0.1
16,GGTAGCACGTGCGGTG,-0.02
17,TTGGGCACGTGTGACT,0
18,GTTTGCACGTGATATG,0.12
19,TTCGGCACGTGAGGGG,0.15
20,TTGGGCACGTGAGTGA,0.13
21,TTTATCACGTGGCCGG,-0.05
22,TGTGGCACGTGTTAGA,-0.05
23,AATTTCACGTGAGGGT,0.37

row,Sequence,relative binding free energy [kcal/mol]
1,TTTATCACGTGGGCGC,-0.11
2,GACAGCACGTGGGTAT,-0.08
3,AAGTACACGTGGCGGG,0.12
4,TGGGGCACGTGACTTG,0.07
5,TTTTACACGTGATACT,0.26
6,GGTTACACGTGATTAT,0.23
7,AACGGCACGTGTGCGG,-0.16
8,AGAGACACGTGTGATT,0.07
9,GCTGGCACGTGTTCAG,0.08
10,GGATACACGTGGGTGC,0.08
11,AATGGCACGTGTCTTG,-0.08
12,CTATGCACGTGGTAGT,-0.24
13,TGTGACACGTGAAGTG,0.08
14,TGTAACACGTGCAGTA,0.02
15,GCAGGCACGTGGCTGG,-0.1
16,TACGTCACGTGATGGT,0.24
17,AGAAGCACGTGTGAGT,0.08
18,ATTGCCACGTGGTAAG,-0.06
19,TTGCACACGTGTTATG,0.01
20,TTATCCACGTGGGTGG,-0.16
21,TATGTCACGTGTCGGG,0.11
22,TTCATCACGTGTTGCG,0.08
23,TGGTACACGTGGTGGA,0.05

row,Sequence,relative binding free energy [kcal/mol]
1,TAGATCACGTGTCGTG,0.18
2,GATAGCACGTGGGGCA,-0.26
3,CTGATCACGTGATGGG,0.19
4,TGCGGCACGTGAACGG,0.14
5,GGTTTCACGTGCTCTG,0.21
6,ATGGACACGTGTAAAT,0.19
7,TGTCGCACGTGGGGAA,-0.09
8,GGGCTCACGTGTGTGG,0.28
9,GACTTCACGTGTGTGA,0.38
10,GATGGCACGTGGGAAT,-0.01
11,GTGGACACGTGTATTC,0.21
12,TTGAACACGTGGTGCG,-0.14
13,GTGTACACGTGCTTGT,-0.07
14,GGAGACACGTGGTGGC,-0.01
15,CGATGCACGTGTGTTT,-0.03
16,AGGAGCACGTGGAGTC,-0.1
17,TTAGGCACGTGGGAGC,-0.1
18,TGATACACGTGGGGTA,-0.12
19,TTGGTCACGTGGCCGA,-0.03
20,GTTATCACGTGTTCAG,0.25
21,GTTTTCACGTGTGCGT,0.41
22,TTATCCACGTGTTGTC,0.11
23,AGGTTCACGTGAAATT,0.38

row,Sequence,relative binding free energy [kcal/mol]
1,AATTTCACGTGCGGTT,0.25
2,AGATACACGTGGGAGG,0.04
3,AAATGCACGTGGTATG,-0.07
4,GGATTCACGTGTGAGG,0.42
5,GATGTCACGTGTCGGA,0.27
6,TGTGACACGTGGTTGG,0.01
7,ATTCGCACGTGTGTGT,-0.07
8,GTCGACACGTGGATGT,-0.03
9,CATTTCACGTGAGGTA,0.4
10,TTGGGCACGTGGTCTG,-0.32
11,TTTGGCACGTGATGCA,-0.05
12,CGTTGCACGTGCTGGT,-0.19
13,TTAGTCACGTGTAGGG,0.14
14,AGAGGCACGTGTAGTG,-0.06
15,GGGCGCACGTGATGTA,0.03
16,GGGAGCACGTGCGGTC,-0.04
17,GTCAACACGTGGGTGT,-0.09
18,AGTCTCACGTGGCAGG,0.08
19,GCTAGCACGTGTTTTG,-0.04
20,AATAACACGTGTGGTA,0.1
21,TGAGTCACGTGGCGCT,-0.01
22,GGAAACACGTGATGGG,0.08
23,GGGGGCACGTGACTGC,0.02

row,Sequence,relative binding free energy [kcal/mol]
1,TTTAACACGTGAATCG,0.24
2,TATATCACGTGGATAG,0.14
3,TGAGGCACGTGGGTTG,-0.2
4,CTCATCACGTGGAGGG,0.05
5,AGGCTCACGTGGGAAG,0.06
6,AGGTGCACGTGCAATG,-0.11
7,GTGGTCACGTGGGTAG,-0.01
8,TGCCGCACGTGAGTGG,-0.02
9,TTTTGCACGTGATCAG,-0.06
10,GGTTACACGTGCGAGG,-0.01
11,GAGTTCACGTGATTTT,0.48
12,TTTGTCACGTGGAATC,0.28
13,TGATTCACGTGAATTT,0.4
14,ACATTCACGTGATTTT,0.39
15,TTCGGCACGTGGCGGA,-0.18
16,TTAGTCACGTGGCCTG,-0.06
17,TCTGTCACGTGTTGGT,0.12
18,GGCTGCACGTGATGGT,0.27
19,TCAAGCACGTGAGGGG,0.19
20,TATTTCACGTGCGAGG,0.19
21,GCTAGCACGTGGATGG,-0.08
22,CGTATCACGTGAGTAG,0.24
23,TGTTGCACGTGGCGGA,-0.09
